Results: PMC4336329 (PLoS ONE, 2015)
Out of some 310,000 compounds screened, about 14,000 (4.5%) showed an effect of 50% or more. The effect is printed as a negative number. The list shows a part of the results.

These compounds were tested against human ether-à-go-go-related gene (hERG) potassium channel (human, UniProt Q12809) (assay: primary screen, population patch clamp on CHO cells stably expressing hERG).
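Note: peak tail current of the secondary pulse compared with the same well before compound.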

Chain of human ether-à-go-go-related gene (hERG) potassium channel (Q12809 whole entry, looked up): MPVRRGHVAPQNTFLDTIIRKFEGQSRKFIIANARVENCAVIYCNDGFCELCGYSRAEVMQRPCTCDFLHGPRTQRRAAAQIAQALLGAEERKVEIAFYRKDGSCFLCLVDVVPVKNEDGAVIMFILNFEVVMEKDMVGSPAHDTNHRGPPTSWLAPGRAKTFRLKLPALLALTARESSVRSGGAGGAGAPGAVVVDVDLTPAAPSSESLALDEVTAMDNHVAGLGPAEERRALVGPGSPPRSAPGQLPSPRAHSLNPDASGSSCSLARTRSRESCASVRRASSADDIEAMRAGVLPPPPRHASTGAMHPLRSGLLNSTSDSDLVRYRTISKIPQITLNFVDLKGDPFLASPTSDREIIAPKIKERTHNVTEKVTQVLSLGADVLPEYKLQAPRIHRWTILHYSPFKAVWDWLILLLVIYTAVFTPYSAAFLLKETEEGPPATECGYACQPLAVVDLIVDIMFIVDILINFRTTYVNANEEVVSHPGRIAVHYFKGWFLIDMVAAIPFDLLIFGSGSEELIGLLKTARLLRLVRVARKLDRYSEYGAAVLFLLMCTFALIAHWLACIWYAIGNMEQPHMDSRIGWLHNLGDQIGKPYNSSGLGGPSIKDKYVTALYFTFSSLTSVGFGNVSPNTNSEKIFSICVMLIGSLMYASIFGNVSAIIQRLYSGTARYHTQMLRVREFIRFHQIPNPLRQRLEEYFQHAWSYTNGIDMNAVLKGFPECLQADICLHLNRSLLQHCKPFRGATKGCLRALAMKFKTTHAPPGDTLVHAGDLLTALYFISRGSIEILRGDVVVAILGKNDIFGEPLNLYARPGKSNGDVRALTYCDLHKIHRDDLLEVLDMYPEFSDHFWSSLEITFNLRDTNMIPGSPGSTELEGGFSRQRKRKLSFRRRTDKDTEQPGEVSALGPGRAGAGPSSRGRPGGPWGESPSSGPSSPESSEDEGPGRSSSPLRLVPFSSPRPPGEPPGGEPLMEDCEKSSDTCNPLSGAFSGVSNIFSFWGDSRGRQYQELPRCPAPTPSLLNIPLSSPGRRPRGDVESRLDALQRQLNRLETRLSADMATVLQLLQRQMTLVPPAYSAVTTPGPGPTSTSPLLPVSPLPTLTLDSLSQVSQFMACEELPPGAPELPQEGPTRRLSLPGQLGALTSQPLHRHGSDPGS

Row | SMILES | hERG current change (%, negative = inhibition) at 10uM
1 | Cc1nnc(SCC(=O)Nc2nc3ccccc3s2)n(N)c1=O | -5.14%
2 | COc1ccc(C2CC(=O)Oc3c(C(CCN4CCOCC4)c4cc(OC)c(OC)c(OC)c4)c(OC)cc(OC)c32)cc1 (stereo not shown) | -17.3%
3 | Cc1ccc2[nH]c(=O)c(C(c3nnnn3CC3CCCO3)N3CCCc4ccccc43)cc2c1 (stereo not shown) | -17.5%
4 | CCC(=O)Nc1ccc(-c2ccc(N3CCCCC3)nn2)cc1 | 16.1%
5 | CCCCOc1ccc(-c2nc(-c3cccnc3)no2)cc1 | -3.6%
6 | CC(NC(=O)COc1ccc(Br)cc1)C1CCCO1 (stereo not shown) | 10.8%
7 | CCOc1ccc(CN2CCN(Cc3cccn3-c3ncccn3)CC2CCO)cc1 (stereo not shown) | -78.3%
8 | COc1ccc(Cc2nnc(SCC(=O)NC3(C#N)CCCCC3)n2N)cc1 | 9.35%
9 | O=C(Nc1ccc2c(c1)OCO2)c1ccc(S(=O)(=O)NCC2CCCO2)cc1 (stereo not shown) | 2%
10 | COC(=O)c1ccc(NC(=O)c2ccccc2NS(C)(=O)=O)cc1 | 19.3%
11 | COc1ccc(-n2c3c(cc(C(=O)NNc4ccccc4C)c2=O)C(=O)CC(C)(C)C3)cc1 | 17.7%
12 | COC(=O)Cc1c(O)ccn(C2CC2)c1=O | 17.5%
13 | COc1ccc(NS(=O)(=O)c2cccc(NC(=O)c3ccc(Cl)nc3)c2)cc1 | 3.36%
14 | CC(C)(C)OC(=O)NCCCCCNC(=O)c1[nH]cnc1C(=O)N[C@@H](CCCCNC(=O)OC(C)(C)C)C(=O)OC(C)(C)C | 17.5%
15 | O=c1[nH]c2ccccc2c2nc3ccccn3c12 | -10.4%
16 | CCC(=O)Nc1cc(C(=O)O)ccc1Sc1ccc(C)cc1 | 4.85%
17 | CCSc1nnc(NC(=O)C(CC)(C(F)(F)F)C(F)(F)F)s1 | 17.7%
18 | CCOc1ccc(-n2c(O)c(C=NCCN(CC)CC)c(=O)[nH]c2=O)cc1 | 16.8%
19 | O=C(CN1C(=O)c2cccnc2Oc2ccc(Cl)cc21)N1CCCC1 | 6.5%
20 | COc1ccc(-c2noc(CNC(=O)CCCN3C(=O)[C@H]4CC=CC[C@H]4C3=O)n2)cc1 | 12.7%
21 | CC1CCCCN1C(=O)COC(=O)c1ccc2c(c1)C(=O)N(Cc1ccco1)C2=O (stereo not shown) | -34.9%
22 | CCOC(=O)CSc1nc2ccc(N)cc2s1 | -1.21%
23 | Cc1cccc2cc(C(c3nnnn3CC3CCCO3)N3CCc4ccccc4C3)c(=O)[nH]c12 (stereo not shown) | -21.9%
24 | CC1CCCCC1NC(=O)C(Cc1ccccc1)NS(=O)(=O)c1cccs1 (stereo not shown) | -13.6%
25 | CCOC(=O)C1CCN(C(=O)Nc2ccc3snnc3c2)CC1 | -1.57%
26 | COc1ccc2c(c1OC)C(=O)OC2Nn1cncn1 (stereo not shown) | 5.89%
27 | COc1ccc(OCc2cc(C(=O)NC(C)Cn3cncn3)no2)c(Cl)c1 (stereo not shown) | -2.32%
28 | CC(C)(C)C1N=C(c2ccc3ccccc3c2)OC1=O (stereo not shown) | 13.7%

Row | SMILES | hERG current change (%, negative = inhibition) at 10uM
29 | COc1ccc(C)cc1Nc1cc(C)nc2ncnn12 | 4.53%
30 | Cc1ccc2cc(C)c(N3CCC(C)CC3)nc2c1 | 11.6%
31 | c1ccc([C@H]2CN3C(=N2)Sc2ccccc23)cc1 | -19.2%
32 | CCN(CC)c1ccc(C(=O)NNC(=O)CCl)cc1.Cl | 2.07%
33 | CCCn1nnnc1NC(=O)c1ccc(C)cc1Cl | 5.02%
34 | Cc1cc2cc(CCNC(=O)CC(C)(C)C)c(=O)[nH]c2cc1C | 7.53%
35 | COc1ccc(CCC(=O)N2CCCSC2=Nc2ccc(C(C)=O)cc2)cc1 | -7.97%
36 | COc1ccc(CNC(=O)C2CCCN(c3nc4ccccc4o3)C2)c(OC)c1 (stereo not shown) | -24.8%
37 | COc1ccc(C2NC(C(=O)O)Cc3c2[nH]c2ccccc32)cc1CN1CCN(c2ccc(F)cc2)CC1 (stereo not shown) | -11.6%
38 | COc1ccc(C(=O)COc2ccc(F)cc2)c(O)c1C | 16%
39 | N#Cc1ccc(S(=O)(=O)N2CCN(CC(=O)NCC3(N4CCOCC4)CCCCC3)CC2)cc1 | -15.8%
40 | CS(=O)(=O)c1cnc2c(S(=O)(=O)c3ccccc3)cnn2c1N | -2.94%
41 | COc1ccc(-n2nc(C(=O)NCC(=O)NCc3ccccc3OC)c3ccccc3c2=O)c(OC)c1 | 7.07%
42 | CCOC(=O)c1c(C)[nH]c(C(=O)COC(=O)C2CC(=O)N(Cc3ccccc3)C2)c1C (stereo not shown) | -18.2%
43 | COc1ccc(CCNC(=O)c2cc(-c3ccncc3)nc3c(Cl)cccc23)cc1OC | -66.9%
44 | CC1CN(C)C(C)CC1OC(=O)C(c1ccccc1)c1ccccc1 (stereo not shown) | -73.7%
45 | Cl.OC(COCC1COc2ccccc2O1)CN1CCN(c2ccc(F)cc2)CC1 (stereo not shown) | -79.3%
46 | Cc1ccc(S(=O)(=O)N(CC(=O)Nc2ccccc2C(=O)O)c2ccc(Cl)cc2)cc1 | 13.6%
47 | CCN1C=C(Cc2ccc(OC)cc2)C2=C(C1)C(c1ccc(OC)cc1)C(C#N)=C(N)O2 (stereo not shown) | -20.4%
48 | CN(CC(=O)Nc1ccccc1Br)CC(=O)Nc1ccccc1-c1ccccc1 | -42%
49 | O=C(CCc1ccccc1)NNC(=O)Nc1ccc(Br)cc1 | -15.5%
50 | COc1oc(-c2ccccc2C)nc1C(F)(F)F | 2.37%
51 | O=C(NC1CCCC1)C(c1c(F)cccc1Cl)N(C(=O)c1csnn1)C1CC1 (stereo not shown) | 12.1%
52 | CC1COC(C)(CC(=O)NN2C(=O)c3ccccc3C2=O)O1 (stereo not shown) | 9.76%
53 | CN(C)C(=O)c1ccc(NC(=O)c2cc(-c3ccco3)nc3ccccc23)cc1 | 9.18%
54 | COc1ccc(C(=O)NCc2ccc3c(c2)OCO3)cc1S(=O)(=O)N1CCCC1 | -39%
55 | C=CCSc1nsc(NC(=O)Nc2ccc(F)cc2)n1 | 22.1%
